This note sets out measurements from publication PMC10726135.

This is one part of the list. At the low end of the ranking the order means little. The protein was read in a cell extract, so binding may be indirect.

The target in the assay is T1, HNF4alpha2 (COS-7 nuclear extract) (UniProt P41235).
T1 sequence: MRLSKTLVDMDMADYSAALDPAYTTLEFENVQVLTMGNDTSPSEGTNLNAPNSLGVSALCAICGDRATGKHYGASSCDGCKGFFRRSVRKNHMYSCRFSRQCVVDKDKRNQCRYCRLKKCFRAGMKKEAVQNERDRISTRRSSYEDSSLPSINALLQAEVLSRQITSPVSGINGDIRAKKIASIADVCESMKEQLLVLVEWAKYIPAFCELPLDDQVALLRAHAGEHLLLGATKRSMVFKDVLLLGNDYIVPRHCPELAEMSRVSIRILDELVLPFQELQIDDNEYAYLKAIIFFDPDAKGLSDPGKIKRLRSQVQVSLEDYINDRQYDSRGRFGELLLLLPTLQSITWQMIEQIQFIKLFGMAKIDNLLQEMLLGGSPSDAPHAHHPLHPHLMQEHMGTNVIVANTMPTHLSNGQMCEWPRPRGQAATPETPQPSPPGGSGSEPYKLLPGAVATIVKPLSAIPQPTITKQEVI
The experiment in a line: protein-binding microarray. The conditions noted are these: COS-7 nuclear extract on double-stranded Agilent 4x180k PBM; binding buffer, salt, pH and temperature not given; high values mean tight binding; double strand, one strand shown; sequences stand for … in …GCCTAGGGAGATTAGAGTATCGGTCGA
Consider CTGGCGTCCCCCACCTGGAATGTGCTCCCG, for which the binding signal (log2 normalized intensity) was determined as 3.28.
For CGGTCACTACAACAACGGCGGCCCAGTCAA the value was -1.08.
The result for CTCCTGGTGTGCTGTTAGCTGAAGGACGTC reads 0.769; that for TCTTCAAGGAGGTGAACTTTGAGACTATCC, 4.6; that for CCCTGGAGCACAGAAGGAGGGCGGGGAGTC, -1.12.
The result for TGTTTGCATTAGTTATATCTTACCTCCTTC reads 1.19; that for AGAGTCCAAATTCCTTGGTATGGCAAATAA, 1.61; that for TTGGAAAAAGCAGGCAACCAAGGGTACACA, -1.05.
Turning to GTCAGGGGCAGGTGGAGGTGGGATACTGGG, the binding signal (log2 normalized intensity) is -1.13.
The result for TAGACAGCTTGAGAAACAGGGGCTTAAACC reads -1.16.
For AAGAGCTGAGGAAGTGCTGACCTTTGGTCT the value was 7.29; for GGCGGCGGCCTCTGGGAAATGTAGTTCCGG, -0.274; for CAGGCAGAGGGTTAACCCCTATTAACCAAA, 0.385.
Consider GGTCAACACAATCTGATAGTTGATTGATTG, for which the binding signal (log2 normalized intensity) came to 0.627.
For CATACTTCAGCAATTTCTTAGTAAACACTG the value was -0.745.
Take GGGTGCAAACTCACCTGGAGAAGCAGAAGC: the binding signal (log2 normalized intensity) is -1.26.
Turning to GTATATTCCCTTTGTATGGCAGGGGTTAAC, the binding signal (log2 normalized intensity) was determined as 2.11.
Consider CCTGTCCAAAGGTCATCTGTCACTCTAGAT, for which the binding signal (log2 normalized intensity) was found to be 5.47.
Take AGGAGACAGGCTTTGAGCATCGCTGGACTC: the binding signal (log2 normalized intensity) is 2.07.
The result for ACGAGACGGTGTCCCTGGCCAATCCCAGGG reads -1.21.
The result for AGCAAAGGTCATGCATAGAAGTATGTCTGG reads 1.65; that for GGCTATACAATTCCAGCAAGGATGGGGGCA, -0.832.
For TGGCGTATGCAGCAGGGCAGCAGCCTGACC the value was 0.432; for CTTTCTCTGTGTGTATGTGTGTGTACACAT, 2.83; for TCTTGCAAACATTACTGGCACACAGCAGAT, -1.18.
AATCCCCTTCAAGTCTGAGATGAAGAGGCC: the binding signal (log2 normalized intensity) is 0.649.
In the case of GAAATGGTGGACTTTGTAGCTCAAACAGTC, the binding signal (log2 normalized intensity) is 3.13.
For AACAACCCTTCGCTAGAGCAAATACAGCAC, the binding signal (log2 normalized intensity) is -1.03.
The result for TCTGCCTAGGCATTTGGCTGTCTCAGTGGG reads 0.748; that for ATGGATTGGGGGCCATGTCTCAGCCCAAGA, -1.18; that for GGCAGGAAAGGGCCTCTCAGGTCAGGGAAG, -0.806.
The result for CTTCAGATAGCCTTTGCCTCCACCTTCTCT reads -0.103; that for GTGTAACATTCATCTGAGACTAACTGCATT, -0.778.
The result for ACATGGGCGTCACCAACCAGCCCTCGAGTG reads 3.42; that for CATTTTTTCAAACACCTGGGTCTGACCTCT, 4.19; that for AGGCTGGGGGCAGAGTTCACCCCATTTTGT, 2.7.
With TTTGCATTCTTACCCAAGCCCCAAATCTAG, the binding signal (log2 normalized intensity) worked out at 2.94.
For TTGTGATACACCTTGCCTGGCTACCTCTTA, the binding signal (log2 normalized intensity) was -0.861.
For GAGAAGCCTAAGCAGGGCTAGACTTTAACC the value was 3.92; for GTGATCAAACAAAAGGGACAAAGGTGAGTG, 1.99.
For CAAACAGCGCTTATCTGGAAACTATTCCTT the value was -0.917; for CTACAAGGACCAGATTCTTAAAGGGACCAC, -1.13; for CTGGGGACCTTTATATGTCCACCTTATCTA, 0.739.
For TCTTATCTGCCTAGGCATTTGGCTGTCTCA the value was -1.05; for GGACTTTGGTGTCTGACAGATAAGATTTGG, 2.31.
GCACAGGTCCTACTCACACTCAAGGCAAGA: the binding signal (log2 normalized intensity) is -1.17.
The result for TTGCACTCATACTTGAAGACATTCCAAGAA reads -0.777.
As for GTTCTCTGGGCTTTTTGATCTTGTCACATT, the binding signal (log2 normalized intensity) turned out to be 1.76.
The result for TCGGAAGACGCACCTCTGCATACTTCCTGT reads -1.01; that for GAGGAGTGAGAACAGACAAAATTAAGTGAT, -0.875.
The result for GTGGTAGGACAGGGCCCTTCACTATTTTCA reads -1.08; that for CATGAAGGTCTCCTTGACTTCAAAGGCATT, 0.693; that for GCAGAGTCCCAAGCATCTCTGAGCAGTGAA, -1.16.
Consider CACTCCATTTACAGACCAATCCATTGACCT, for which the binding signal (log2 normalized intensity) was found to be 3.2.
With CACAAGCTGTGTGGCATGGTGTTTTGCCTT, the binding signal (log2 normalized intensity) worked out at 1.38.
As for CTGGAAATGTTTGTAGGGACTTTGACCCCT, the binding signal (log2 normalized intensity) amounted to 9.92.
For GCCAAACCAGGTCATGCATTCTGCTTACTA the value was -1.2; for AGCCAGGCCAACACCAAGCAAGCTCTGCAA, -0.966.
For CTGGGGGCAAAGGTTCACTTTGGGGAAGTC the value was 3.85; for AGAAAGGGGTCAGCAAAAATAGCCAAAATA, -1.06; for CCCCCAACAGGGCTCCTGTTCAGCATAGTC, 2.42.
On to TAGTGCAAGAATCCAAGAATTCGATTGTTT, for which the binding signal (log2 normalized intensity) was -1.16.
The result for TCCGTCTATAAATACGCCTCGCCCGAGCTG reads -1.19; that for TCAGCTGACATTGGTGGAATCTGAACTTTT, 3.
The result for TCCGGGGTCACGCGCGTGTGGATACGATGA reads 1.76.
For ACAGGCCCTCTGATATTGGGTGAGTGTTAG, the binding signal (log2 normalized intensity) came out at 1.25.
For ATGTTTTGTTATCTGTGCCACAGGTATTTC the value was 1.43.
The result for AGCATAAGGTTTCCATCAAGCCTTTGACTC reads -0.717; that for GGAGGGGTGCGAAGGTCGAGGCCAGGGATT, 2.15.
The result for AGAGCGTCCCACCTGAGGCCAAGCAGCTGT reads -1.17.
Take GTGTTATCTCTGATGCCCTTTGGCCTTTCT: the binding signal (log2 normalized intensity) is 6.59.
For AAAGAGCAGCTAGCTCCAGTTGGTTGCTAA the value was -1.15.
